Reference: patent publication US20250381223A1

Experiments:
CD40-Fc (human) [1] = biological target: CD40-Fc (human) (UniProt P25942); assay: flow cytometry of T cells co-electroporated with 15 µg diabody mRNA and 2 µg M12 CAR mRNA; CD40-Fc + PE-anti-Fc; E1 without mRNA: 0.56
CD40-Fc (human) [2] = biological target: CD40-Fc (human) (UniProt P25942); assay: flow cytometry of T cells co-electroporated with 15 µg diabody mRNA and 0.5 µg 4D5.BBZ mRNA; CD40-Fc + PE-anti-IgG-Fc; E1 without mRNA: 0.27

- % of cells in the positive gate (CD40-Fc (human) [1]): 98.9
- % of cells in the positive gate (CD40-Fc (human) [2]): 99.2
B1: 1412-4D11 (bispecific antibody, from a related filing)
chain: QVQLVQSGAEVKKPGASVKVSCKASGYTFTSYYIHWVRQAPGQGLEWIGCIYPGNVNTNYNEKFKDRATLTVDTSISTAYMELSRLRSDDTAVYFCTRSHYGLDWNFDVWGQGTTVTVSSVEGGSGGSGGSGGSGGVMD[omitted - about 100 residues]GGGGSQLQLQESGPGLLKPSETLSLTCTVSGGSISSPGYYGGWIRQPPGKGLEWIGSIYKSGSTYHNPSLKSRVTISVDTSKNQFSLKLSSVTAADTAVYYCTRPVVRYFGWFDPWGQGTLVTVSSASGGGGSGGGGSGGGGSAIQLTQSPSSLSASVGDRVTITCRASQGISSALAWYQQKPGKAPKLLIYDASNLESGVPSRFSGSGSGTDFTLTISSLQPEDFATYYCQQFNSYPTFGQGTKVEIKRT
